# Reference: publication PMC4336329 (PLoS ONE, 2015)
# The whole screen tested about 310,000 compounds, of which about 14,000 (4.5%) showed an effect of 50% or more. The effect is printed as a negative number. Some of the results follow.
# Target: human ether-à-go-go-related gene (hERG) potassium channel (human, UniProt Q12809)
# Assay: primary screen, population patch clamp on CHO cells stably expressing hERG
# 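Further: peak tail current of the secondary pulse compared with the same well before compound.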
# Chain of human ether-à-go-go-related gene (hERG) potassium channel (Q12809 whole entry, looked up): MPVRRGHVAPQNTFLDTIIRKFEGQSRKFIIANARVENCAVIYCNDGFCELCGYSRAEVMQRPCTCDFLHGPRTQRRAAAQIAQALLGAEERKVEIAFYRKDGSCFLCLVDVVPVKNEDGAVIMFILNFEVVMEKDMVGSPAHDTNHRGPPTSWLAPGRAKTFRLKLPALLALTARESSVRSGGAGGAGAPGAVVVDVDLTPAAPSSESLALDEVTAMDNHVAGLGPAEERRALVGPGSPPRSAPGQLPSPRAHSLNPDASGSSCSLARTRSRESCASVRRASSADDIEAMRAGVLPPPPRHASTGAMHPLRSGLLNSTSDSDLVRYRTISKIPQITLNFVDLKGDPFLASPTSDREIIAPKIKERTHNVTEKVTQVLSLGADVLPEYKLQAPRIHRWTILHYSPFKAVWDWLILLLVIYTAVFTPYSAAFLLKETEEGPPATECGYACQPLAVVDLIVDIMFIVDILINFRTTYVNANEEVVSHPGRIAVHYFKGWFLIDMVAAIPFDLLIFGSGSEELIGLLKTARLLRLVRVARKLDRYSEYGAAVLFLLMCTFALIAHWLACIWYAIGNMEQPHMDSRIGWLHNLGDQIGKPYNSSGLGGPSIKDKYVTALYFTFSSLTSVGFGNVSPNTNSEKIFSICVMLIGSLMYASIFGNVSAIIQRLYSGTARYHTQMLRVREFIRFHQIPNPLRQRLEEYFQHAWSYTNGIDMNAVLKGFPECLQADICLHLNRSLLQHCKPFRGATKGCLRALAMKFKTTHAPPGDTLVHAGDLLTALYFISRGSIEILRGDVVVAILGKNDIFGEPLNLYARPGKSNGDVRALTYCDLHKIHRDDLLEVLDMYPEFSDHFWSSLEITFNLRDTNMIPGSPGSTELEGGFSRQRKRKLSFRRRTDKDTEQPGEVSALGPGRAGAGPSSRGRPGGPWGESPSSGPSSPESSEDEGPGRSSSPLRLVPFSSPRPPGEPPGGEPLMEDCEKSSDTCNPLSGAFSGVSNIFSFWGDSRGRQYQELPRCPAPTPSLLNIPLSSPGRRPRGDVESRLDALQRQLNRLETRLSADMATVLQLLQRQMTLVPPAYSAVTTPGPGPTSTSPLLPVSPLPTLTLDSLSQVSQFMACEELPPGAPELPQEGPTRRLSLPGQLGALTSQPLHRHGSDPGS
row,SMILES,"hERG current change (%, negative = inhibition) at 10uM [%]"
1,CCC(C)NC(=O)C1CCN(c2nc(C)cc(C)n2)CC1 (centres unmarked),1.92
2,O=S(=O)(Nc1cccc(-c2ccc3nncn3n2)c1)c1cccs1,-2.37
3,COCc1cc(C)nc2sc(C(=O)Nc3ccc(C(=O)OC)cc3)c(N)c12,6.97
4,CCCCN(CC)S(=O)(=O)c1ccc2c(c1)CCCN2C(C)=O,-43.3
5,CN(C(=O)c1ccncc1)c1nnc(-c2cnccn2)s1,7.23
6,CCOc1ccc(N2CC(C(=O)Nc3ccc(OC)c(S(=O)(=O)N4CCCCC4)c3)CC2=O)cc1 (centres unmarked),4.22
7,COc1ccc(OC)c(CN2CCN(C(=O)c3cccs3)CC2)c1.O=C(O)C(=O)O,-41.1
8,COc1ccc(NC(=O)c2cccc(N3C(=O)C4C5C=CC(C5)C4C3=O)c2)cc1 (centres unmarked),6.74
9,CC(=O)OCC1=C(C(=O)O)N2C(=O)C(NC(=O)c3ccc(F)cc3)C2SC1 (centres unmarked),8.23
10,COc1ccc2cc(C(c3nnnn3C3CCCC3)N3CCc4ccccc4C3)c(=O)[nH]c2c1 (centres unmarked),-28.8
11,O=C(NC1CCCCC1)C1CCN(S(=O)(=O)c2cccs2)CC1,15.9
12,Cn1ccs/c1=N\C(=O)Nc1cccc(C(F)(F)F)c1,-2.49
13,CC(=O)NC(=O)Nc1sc(=S)n(C)c1C,14.1
14,O=[N+]([O-])c1ccc2nc(-c3cccnc3)[nH]c2c1,-12
15,CC(C)c1ccc(NC(=O)CCNC(=O)N2C[C@H]3C[C@@H](C2)c2cccc(=O)n2C3)cc1,5.62
16,Cc1ccc(NC(=S)N2CC(C)OC(C)C2)cc1C (centres unmarked),13.1
17,NNc1nccc(Nc2ccccc2C(=O)O)n1,8.41
18,COc1ccccc1-c1nnc(NC(C)=O)s1,3.11
19,Cc1cccc(NC(=O)C(=O)NCc2ccc3c(c2)OCO3)c1C,-16.5
20,Cc1cc(Nc2ccc(Br)c(C)c2)n2nc(C)nc2n1,-35.5
21,O=C(Nc1cc(C(F)(F)F)ccc1-n1cnc2ccccc21)c1ccccc1,-32
22,Cc1nc2ncnn2c(Nc2ccc3c(c2)OCCO3)c1C,0.223
23,CC1(C)CN=C(N(C(=O)Nc2ccccc2)c2ccccc2F)S1,-2.49

row,SMILES,"hERG current change (%, negative = inhibition) at 10uM [%]"
1,Cc1cccc(OCC(O)Cn2ccnc2C)c1 (centres unmarked),-9.12
2,CCOc1nc(-c2ccccc2)ccc1-c1noc(-c2ccncc2)n1,21.2
3,Cc1cc(C(=O)OCC(=O)Nc2ccccc2[N+](=O)[O-])c2ccccc2n1,8.56
4,CC(C)(C)NC(=O)NC(=O)COC(=O)Cn1cnc2ccccc2c1=O,-8.14
5,COC(=O)c1c(NC(=O)CN2CCN(S(=O)(=O)c3ccccc3)CC2)sc2c1CCC(C)C2 (centres unmarked),9.27
6,CCC(Sc1nncn1C)C(=O)Nc1cc(C)on1 (centres unmarked),1.27
7,CCN(CC)c1nc(OC)nc(-n2nnc(C(C)=O)c2C)n1,1.29
8,O=C(CN(Cc1ccco1)C(=O)c1ccccc1F)Nc1ccccc1C(F)(F)F,2.3
9,COc1ccc(N2C(=O)C3CCCN3C2c2ccc(F)cc2)cc1Cl (centres unmarked),3.03
10,CC1CN(C(=O)COC(=O)COc2ccc(C#N)cc2)CC(C)O1 (centres unmarked),7.34
11,Cn1cc([N+](=O)[O-])c(C(=O)Nc2ccc3c(c2)OCCO3)n1,5.3
12,COc1ccc(NS(=O)(=O)c2c(C)n(C)c(=O)n(C)c2=O)cc1OC,7.47
13,O=C(c1cccc(Cl)c1)N1CCN(c2ncccn2)CC1,4.92
14,COc1ccccc1CNC(=O)COC(=O)Cn1cnc2ccccc21,23.2
15,CC(=O)c1ccc(N2CCN(C(=O)[C@H](C)NC(=O)c3ccccc3Cl)CC2)cc1,-9.57
16,Cc1cc(N2CCCc3ccccc32)n2ncnc2n1,6.99
17,COC(=O)CN(c1cc([N+](=O)[O-])ccc1OC)S(C)(=O)=O,14.4
18,Cc1ccccc1OC(C)C(=O)Nc1ccc2c(c1)OCCO2 (centres unmarked),-9.26
19,CCOC(=O)C1CCCN(C(=O)C2CCN(S(=O)(=O)c3ccc4ccccc4c3)CC2)C1 (centres unmarked),-23.3
20,COc1ccccc1N1CCN(C2CCCN(Cc3ccccc3OCCO)C2)CC1 (centres unmarked),-25.5
21,CCOC(=O)C1CCCN(CC(=O)c2c[nH]c3ccc(C)cc23)C1 (centres unmarked),-43.3
22,CC(=O)Nc1cccc(NC(=O)C2CCCN2C(=O)Nc2ccccc2C)c1 (centres unmarked),-0.921
23,CCOC(=O)c1c(NC(=O)CSc2ncccn2)sc(C(=O)NC)c1C,-21.2

row,SMILES,"hERG current change (%, negative = inhibition) at 10uM [%]"
1,O=C(CCN1C(=O)[C@H]2CC=CC[C@H]2C1=O)NCc1nc(-c2ccccc2)no1,16.1
2,Cn1cc(SCC(=O)NCc2ccc3c(c2)OCO3)c2ccccc21,-13.1
3,COC(=O)c1ccc(N2CCN(S(=O)(=O)c3ccc4ccccc4c3)CC2)c([N+](=O)[O-])c1,19.6
4,N/C(Cc1cccs1)=N\OC(=O)COc1ccc(Br)cc1Cl,-2.16
5,CC(=O)c1cccc(OCCN2C(=O)NC(C)(C)C2=O)c1,-2.54
6,CC1=NNC(=O)c2ccccc2O1,21.7
7,O=C(Nc1cccnc1Cl)c1cc(-c2ccco2)on1,22.6
8,CN(C(=S)NC(=O)/C=C/c1ccc(F)cc1)C1CCCCC1,4.54
9,CCCC1CCC(c2ccc(C(N)=O)cc2)CC1 (centres unmarked),6.91
10,COc1ccc(Cl)cc1C(=O)Nn1c(-c2cccs2)nc2ccccc2c1=O,-5.47
11,Cc1nn(-c2ccccc2)c2c1P(=O)(O)/C(=C1\N(C)c3ccccc3C1(C)C)C=N2,1.3
12,O=C(NCc1nc2ccccc2[nH]1)C1=C[C@@H](c2ccc(C(F)(F)F)cc2)C[C@@H](OCc2ccc(CO)cc2)O1,21.8
13,O=C(NCC(c1cccs1)N1CCOCC1)c1cc(Cl)ccc1[N+](=O)[O-] (centres unmarked),-16.9
14,O=C(NNC(=O)c1cccc(-n2cccc2)c1)c1ccc(F)cc1,-2.56
15,Cc1nc2ccc(C(=O)N/N=C/c3cc([N+](=O)[O-])ccc3O)cc2[nH]1,10.9
16,O=C(CSc1nc2ccccc2c(=O)[nH]1)N1CCCCC1,0.0245
17,CC(C)C(NS(=O)(=O)c1ccccc1F)C(=O)N1CCc2ccccc2C1 (centres unmarked),10.4
18,COc1ccccc1N(CC(=O)NCCSc1ccc(Cl)cc1)S(C)(=O)=O,-6.87
19,O=C1CCCN1c1cc(Cl)ccc1Cl,2.17
20,Cc1cc(C)c2c3c(sc2n1)C1(CCSCC1)C(C#N)=C(N)O3,-18.4
21,N#CC1=C(N)SC(N)=C(C#N)C1Cc1ccccc1,16.4
22,O=C(/C=C/c1ccccc1)c1ccc2c(c1)OCCCCO2,-2.95
23,CCOC(=O)c1ccccc1NC(=O)C1CSC2(C)CCC(=O)N12 (centres unmarked),-6.29

row,SMILES,"hERG current change (%, negative = inhibition) at 10uM [%]"
1,CCOC(=O)c1[nH]c2cc3c(cc2c1NC(=O)CN1CC(C)CC(C)C1)OCO3 (centres unmarked),8.83
2,CC(c1ccccc1)c1nnc(NC(=O)Nc2ccccc2F)s1 (centres unmarked),15.5
3,COc1ccc2c(CC(=O)OCC(=O)N3CCc4ccccc43)coc2c1,2.48
4,CCOc1ccc(-c2nnc(SCC(=O)NC3CC3)o2)cc1,-4.15
5,COc1ccccc1C(=O)N1CCN=C1SCc1cccnc1,7.45
6,CN(CC(=O)Nc1cccc(F)c1)C(=O)CC1CCCCC1,11.5
7,CCC(CC)NCc1ccc(OC)cc1OC,-20.4
8,COc1cc(NC(=S)NC(=O)c2ccc(C)cc2C)ccc1NC(=O)c1cccs1,9.29
9,Nc1c(Cl)cc(C2=NCCn3nc4ccccc4c32)cc1Cl,-11.3
10,COc1cccc(N2CCN(S(=O)(=O)c3cccc4cccnc34)CC2)c1,15.5
11,CCc1cc(=O)oc2c(C)c(OCC(=O)N3CCC[C@@H]3C(=O)O)ccc12,15.6
12,NC(=O)CCCn1c(C(=O)c2cc(Cl)c(N)c(Cl)c2)c2ccc([N+](=O)[O-])cc2[n+]1[O-],-30.9
13,COc1cc(OC)cc(C(=O)N2CCCC(c3nc(-c4ccc(C)o4)no3)C2)c1 (centres unmarked),-9.35
14,FC(F)(F)c1cc(-c2ccco2)nc(-n2nnc3ccccc32)n1,-3.29
15,C=CCNc1ncnc2c1ncn2C1OC(CO)C(O)C1O (centres unmarked),16.9
16,Cc1ccccc1OCc1ccc(C(=O)N2CC(C)OC(C)C2)o1 (centres unmarked),-3.9
17,COc1ccc(Cc2nc(C(=O)Nc3ccc(Cl)cc3)cs2)cc1,-42.8
18,CCC(=O)c1ccc(OCC(O)Cn2cnc3ccccc32)cc1 (centres unmarked),-23.6
19,Nc1ccccc1N=Cc1ccc(-c2cccc(Cl)c2)o1,10.5
20,O=C(NNC(=O)C1C2C=CC(C2)C1C(=O)O)c1cc(Cl)ccc1O (centres unmarked),14.5
